# PubChem BioAssay AID463173 (ICCB-Longwood Screening Facility, Harvard Medical School, 2010)
# Among all 52,000 compounds or so, about 4,300 (8.3%) were called active. No stated cut-off is given here; in the data, active means survival mostly below about 52% (no sharp cut-off); inactive means mostly above about 56%. The list shows a part of the results.
# System: DeltatarO mutant
# Assay: S. aureus survival, RN4220 and DeltatarO strains – OD600, teichoic acid synthesis inhibitors, primary screen (AID 463173)
# Conditions: S. aureus RN4220 wild type/DeltatarO growth, OD600, 18 h, active compounds read low, screened at 18.75 µg/mL (by protocol)
row,SMILES,survival
1,C/C(=N\NC(N)=O)C1CC(c2ccccc2)C(=O)O1 (stereo unspecified),inactive: 74%
2,Cc1ccc2c(c1)N(CC(=O)N1CCCCC1C)C(=O)CO2 (stereo unspecified),inactive: 93%
3,CCOC(=O)c1c(N)sc2c(OC)c(Br)ccc12,active: 1%
4,CCCC(=O)N1CCCC(c2nc(-c3cccs3)no2)C1 (stereo unspecified),inactive: 107%
5,CCN(CC)Cc1c(NC(=O)c2ccc(OC)cc2)sc2c1CCCC2,inactive: 71%
6,COc1ccc(CCNC(=O)Cn2c(=O)c3cccn3c3ccc(F)cc32)c(OC)c1,inactive: 77%
7,O=C(Nc1ccc2c(c1)oc1ccccc12)C(F)(F)F,inactive: 97%
8,Cc1ccc(C)c(-c2nnc(NC(=O)c3ccc4c(c3)OCCO4)o2)c1,inactive: 96%
9,CC(=O)Nc1ccc(Nc2nc3c(S(=O)(=O)c4cccc(Cl)c4)nnn3c3ccsc23)cc1,inactive: 54%
10,COc1ccc(-c2cc(C(=O)Oc3cccc(C)c3)c3cc(C)ccc3n2)cc1,active: 13%
11,COc1ccc(CCNC(=O)c2cnc3sc(N4CCCCC4)nn3c2=O)cc1OC,inactive: 85%
12,Cc1oc2ncn(CC(C)C)c(=O)c2c1C(=O)NCCCN1CCC(C)CC1,inactive: 115%
13,O=C(COc1ccccc1F)OCc1cc(=O)n2nc(C3CC3)sc2n1,inactive: 84%
14,Cc1cc(C)cc(-n2c(C)nc3cc(C(=O)NCc4ccccc4Cl)ccc32)c1,inactive: 80%
15,Cc1ccc(NC(=O)CN2C(=O)CCc3cc(S(=O)(=O)N4CCCCC4)ccc32)cc1C,inactive: 112%
16,CCOc1ccc(NC(=O)N(Cc2c[nH]c3ccccc23)C2CCCCCC2)cc1,inactive: 79%
17,Cc1ccc(NC(=O)c2c(C)oc3ccc(O)c(CN4CCOCC4)c23)c(C)c1,inactive: 89%
18,COc1ccc(C2C(C(=O)Nc3ccccc3OC)=C(C)Nc3c(C(=O)Nc4ccccc4)cnn32)c(OC)c1 (stereo unspecified),inactive: 134%
19,CC(C)CCNC(=O)CCn1c(=O)c2cccn2c2cccnc21,inactive: 79%
20,Cc1ccc(OCC(=O)N(Cc2ccco2)Cc2ccco2)cc1C,inactive: 51%
21,COc1ccc(CCNC(=O)CNCC2CCCO2)cc1OC (stereo unspecified),inactive: 97%
22,COc1cn(CC(=O)Nc2ccccc2)c(CN2CCCCC2)cc1=O,inactive: 95%
23,Cc1ccc(NC(=O)c2cc3c(=O)n(Cc4ccco4)ccc3nc2C)cc1C,inactive: 70%
24,Cc1ccc(CN(C(=O)COc2ccc(Cl)cc2C)C2CCS(=O)(=O)C2)o1 (stereo unspecified),inactive: 76%
25,CCOC(=O)c1c(NC(=O)c2cc(CC(C)C)on2)sc(C(C)=O)c1C,active: 54%
26,CCCn1c(=O)c2c(nc3n2CCN3c2ccc(C)cc2)n(C)c1=O,inactive: 69%
